Structures are written as SMILES. About 14,000 (4.5%) of roughly 310,000 compounds showed an effect of 50% or more. Effects have a minus sign here. This is one part of the list.
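Note: peak tail current of the secondary pulse compared with the same well before compound.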

In the experiment the target is human ether-à-go-go-related gene (hERG) potassium channel (human, UniProt Q12809). Description: primary screen, population patch clamp on CHO cells stably expressing hERG.
Sequence of human ether-à-go-go-related gene (hERG) potassium channel (Q12809 whole entry, looked up): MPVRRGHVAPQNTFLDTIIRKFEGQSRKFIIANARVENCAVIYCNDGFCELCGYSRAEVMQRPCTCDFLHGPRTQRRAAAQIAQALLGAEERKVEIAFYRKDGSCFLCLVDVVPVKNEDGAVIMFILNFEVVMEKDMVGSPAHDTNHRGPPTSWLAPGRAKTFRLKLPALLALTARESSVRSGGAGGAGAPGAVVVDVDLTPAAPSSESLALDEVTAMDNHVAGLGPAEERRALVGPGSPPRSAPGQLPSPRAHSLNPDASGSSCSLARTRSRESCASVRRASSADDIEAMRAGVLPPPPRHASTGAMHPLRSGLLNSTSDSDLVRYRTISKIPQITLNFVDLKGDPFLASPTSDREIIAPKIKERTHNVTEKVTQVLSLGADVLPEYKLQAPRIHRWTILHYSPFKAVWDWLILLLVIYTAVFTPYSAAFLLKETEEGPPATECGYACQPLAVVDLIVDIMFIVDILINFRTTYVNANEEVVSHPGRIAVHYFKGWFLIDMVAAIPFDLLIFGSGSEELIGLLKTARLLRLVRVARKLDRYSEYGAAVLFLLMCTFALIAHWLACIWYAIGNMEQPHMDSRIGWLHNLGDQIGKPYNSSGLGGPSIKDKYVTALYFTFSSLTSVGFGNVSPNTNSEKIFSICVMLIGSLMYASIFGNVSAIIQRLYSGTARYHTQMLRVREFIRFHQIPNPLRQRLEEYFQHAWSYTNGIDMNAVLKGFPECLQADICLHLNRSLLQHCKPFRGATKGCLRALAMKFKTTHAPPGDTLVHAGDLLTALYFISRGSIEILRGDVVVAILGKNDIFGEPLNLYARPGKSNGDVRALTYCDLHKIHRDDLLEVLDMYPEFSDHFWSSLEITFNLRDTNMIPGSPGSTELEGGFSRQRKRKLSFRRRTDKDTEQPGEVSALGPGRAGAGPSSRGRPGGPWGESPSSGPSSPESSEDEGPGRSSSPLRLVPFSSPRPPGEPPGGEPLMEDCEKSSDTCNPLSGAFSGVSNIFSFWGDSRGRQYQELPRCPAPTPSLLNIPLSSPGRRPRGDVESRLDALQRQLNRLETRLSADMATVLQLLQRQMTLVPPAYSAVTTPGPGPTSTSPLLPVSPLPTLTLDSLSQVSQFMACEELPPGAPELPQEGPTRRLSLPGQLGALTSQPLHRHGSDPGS
Turning to `CN(C)C1(CN=Cc2cc(Cl)cc([N+](=O)[O-])c2O)CCCCC1`, the “hERG current change (%, negative = inhibition) at 10uM” value stood at 11.4%.

In the case of `O=C(NCc1cccs1)C1CCC(=O)N1C1CCCCC1` (stereo not shown), the “hERG current change (%, negative = inhibition) at 10uM” value was -5.61%.

Consider `CCOc1ccccc1N1CCN(C(=O)c2cccs2)CC1`, for which the “hERG current change (%, negative = inhibition) at 10uM” value turned out to be 9.36%.

On to `CCOc1ccc(CCNC(=O)CSCC(=O)Nc2cccc(C)c2)cc1OCC`, for which the “hERG current change (%, negative = inhibition) at 10uM” value is listed as -8.35%.

Take `Cc1cccc(N2CCN(C(=O)C3CCN(S(=O)(=O)c4cccc5cccnc45)CC3)CC2C)c1` (stereo not shown): the “hERG current change (%, negative = inhibition) at 10uM” value was -8%.

Consider `COc1ccc(C2=C(C[NH+](C)C)C(c3ccccc3)c3ccccc3O2)cc1.[Cl-]` (stereo not shown), for which the “hERG current change (%, negative = inhibition) at 10uM” value was -7.29%.

`CCc1ccccc1NC(=O)CSc1nnc([C@@H](N)Cc2c[nH]c3ccccc23)o1.Cl`: the “hERG current change (%, negative = inhibition) at 10uM” value is on record as -13.9%.

Consider `Cc1cc(C)cc(NC(=O)CCN2CC(C)OC(C)C2)c1` (stereo not shown), for which the “hERG current change (%, negative = inhibition) at 10uM” value is -1.23%.

For `CC(=O)N1CCc2c(sc(NC(=O)C3CCN(S(=O)(=O)c4cccs4)CC3)c2C(N)=O)C1`, the “hERG current change (%, negative = inhibition) at 10uM” value is listed as -29.4%.

`CC1=C(C(=O)Nc2ccc(Cl)cc2)C2(CCCCC2)C(C(N)=O)C(=S)N1` (stereo not shown): the “hERG current change (%, negative = inhibition) at 10uM” value is recorded as -12.1%.

In the case of `CCCCn1c(SCC(=O)NCc2ccco2)nnc1-c1ccco1`, the “hERG current change (%, negative = inhibition) at 10uM” value is -19.9%.

With `Cc1cc(N/N=C/c2ccccc2[N+](=O)[O-])nc(-n2nc(C)cc2C)n1`, the “hERG current change (%, negative = inhibition) at 10uM” value was -2.42%.

With `Cc1ccc2oc3c(c(=O)c2c1)C(c1cccs1)N(CCCN(C)C)C3=O` (stereo not shown), the “hERG current change (%, negative = inhibition) at 10uM” value is -8.09%.

On to `CSCc1cc(N(C)C)nc(SCc2ccc(Cl)c(Cl)c2)n1`, for which the “hERG current change (%, negative = inhibition) at 10uM” value is -3.51%.

Turning to `CCOC(Cn1c(-c2ccc(OC)cc2)nc2ccccc21)OCC`, the “hERG current change (%, negative = inhibition) at 10uM” value is reported as -13.2%.

Turning to `CC(=O)N[C@@H](Cc1ccc(O)cc1)CN1C(N)=NC[C@@H]1CC(C)C`, the “hERG current change (%, negative = inhibition) at 10uM” value is given as 5.45%.

In the case of `COCCn1c(C)cc(C(=O)CSc2ncn[nH]2)c1C`, the “hERG current change (%, negative = inhibition) at 10uM” value came to 10.2%.

As for `COCc1cc(C)nc(Nc2ccc(C)c(C)c2)c1C#N`, the “hERG current change (%, negative = inhibition) at 10uM” value is recorded as -5.71%.

For `Cc1c(C(=O)c2cccc([N+](=O)[O-])c2)c2ccccn2c1CCC#N`, the “hERG current change (%, negative = inhibition) at 10uM” value is -12.2%.

Turning to `C=CCc1ccccc1OCCOc1ccc([N+](=O)[O-])cc1/C=N/NC(N)=O`, the “hERG current change (%, negative = inhibition) at 10uM” value was found to be 38.8%.

Regarding `COc1ccc2oc(=O)c(C(=O)Oc3ccc(NC(C)=O)cc3)cc2c1`, the “hERG current change (%, negative = inhibition) at 10uM” value is listed as -10.4%.

Regarding `N=Nc1c(O)n(CC(=O)Nc2ccccc2)c2ccccc12`, the “hERG current change (%, negative = inhibition) at 10uM” value was found to be 2.87%.

On to `Cc1ccc(-n2c(SCC(=O)Nc3ccc4c(c3)OCO4)nnc2-c2ccoc2C)cc1`, for which the “hERG current change (%, negative = inhibition) at 10uM” value is -42.2%.

Take `C=CCN(CC=C)S(=O)(=O)c1ccc(NC(=S)NC(=O)Cc2ccc(OC)cc2)cc1`: the “hERG current change (%, negative = inhibition) at 10uM” value stood at 14.7%.

On to `COc1ccccc1NC(=O)CCNS(=O)(=O)c1ccc2c(c1)CCN2C(C)=O`, for which the “hERG current change (%, negative = inhibition) at 10uM” value is -11.5%.

Consider `CCc1nc2ccccc2c(C(=O)Nc2cccc(C)c2)c1C`, for which the “hERG current change (%, negative = inhibition) at 10uM” value is listed as 23.3%.

Consider `CCN1C(=O)/C(=C\N2CCN(c3ccccc3)CC2)SC1=S`, for which the “hERG current change (%, negative = inhibition) at 10uM” value stood at 5.21%.

Consider `COc1cc(/C(C)=N/NC(=O)c2cccc(S(=O)(=O)N3CCCC3)c2)cc(OC)c1OC`, for which the “hERG current change (%, negative = inhibition) at 10uM” value came out at 12.2%.

For the compound `CN(CCc1ccccn1)C(=O)CCNC(=O)Cn1cnc2ccccc2c1=O`, the “hERG current change (%, negative = inhibition) at 10uM” value worked out at 19.7%.

Take `CCC(=NCc1ccc2c(c1)OCO2)c1c(O)n(C2CCCCC2)c(=O)[nH]c1=O`: the “hERG current change (%, negative = inhibition) at 10uM” value is -3.04%.

As to `COc1ccccc1/C=N/NC(=O)c1ccccc1NS(=O)(=O)c1ccc(C)cc1`, the “hERG current change (%, negative = inhibition) at 10uM” value is recorded as 9.08%.

Turning to `O=C(NC1CCCC1)C(c1ccc(Cl)cc1)N(C(=O)c1csnn1)C1CC1` (stereo not shown), the “hERG current change (%, negative = inhibition) at 10uM” value was -3.03%.

As for `Cc1cc(C)cc(NC(=O)c2ccc(NC3=NC4CS(=O)(=O)CC4S3)cc2)c1` (stereo not shown), the “hERG current change (%, negative = inhibition) at 10uM” value is recorded as -0.378%.

For the compound `COc1ccc(C(=O)Nc2ccccc2C(=O)NCc2cccnc2)cc1`, the “hERG current change (%, negative = inhibition) at 10uM” value is on record as -3.89%.

As for `CCCC1C(=O)N2C(N(C)C)=Nc3ccc(C)cc3N2C1=O` (stereo not shown), the “hERG current change (%, negative = inhibition) at 10uM” value was found to be 15.6%.

On to `Cc1nn(CC2CC2)c(=O)n1-c1cccc(Cl)c1`, for which the “hERG current change (%, negative = inhibition) at 10uM” value is recorded as 15.7%.

In the case of `COc1ccc(NC(=O)c2cc([N+](=O)[O-])nn2Cc2ccccc2)c(C)c1`, the “hERG current change (%, negative = inhibition) at 10uM” value was -3.25%.

With `O=S(=O)(NCc1ccc(C(F)(F)F)cc1)c1ccc(-n2cnnn2)cc1`, the “hERG current change (%, negative = inhibition) at 10uM” value is recorded as -22.2%.

Take `CCOc1ccccc1Nc1nc(-c2sc(NC(=O)c3ccc([N+](=O)[O-])cc3)nc2C)cs1`: the “hERG current change (%, negative = inhibition) at 10uM” value was -10.3%.

`CCc1ccccc1N(CC(=O)N1CCCCC1)S(=O)(=O)c1ccccc1`: the “hERG current change (%, negative = inhibition) at 10uM” value came to 10.6%.

Turning to `O=C(c1ccc(F)c(S(=O)(=O)N2CCOCC2)c1)N1CCN(c2ncccn2)CC1`, the “hERG current change (%, negative = inhibition) at 10uM” value is listed as -4.06%.

Take `COc1ccc(C(=O)CNc2ccccc2CO)cc1`: the “hERG current change (%, negative = inhibition) at 10uM” value was 22.8%.

Regarding `O=C(c1cc(-c2ccccc2)on1)N1CCCCCC1`, the “hERG current change (%, negative = inhibition) at 10uM” value is reported as 6.65%.

These data come from paper PMC4336329 (PLoS ONE, 2015).
